Data from paper PMC3197607.
Results are given in words; binding and its absence hold for the method and conditions named. Binding seen in cells or lysates may run through a third protein. Some results given as binding are weak or reduced against the parent protein; the word gives no strength.

Chains of the proteins cited; added tags and fusions are not shown.
UniProt Q13547: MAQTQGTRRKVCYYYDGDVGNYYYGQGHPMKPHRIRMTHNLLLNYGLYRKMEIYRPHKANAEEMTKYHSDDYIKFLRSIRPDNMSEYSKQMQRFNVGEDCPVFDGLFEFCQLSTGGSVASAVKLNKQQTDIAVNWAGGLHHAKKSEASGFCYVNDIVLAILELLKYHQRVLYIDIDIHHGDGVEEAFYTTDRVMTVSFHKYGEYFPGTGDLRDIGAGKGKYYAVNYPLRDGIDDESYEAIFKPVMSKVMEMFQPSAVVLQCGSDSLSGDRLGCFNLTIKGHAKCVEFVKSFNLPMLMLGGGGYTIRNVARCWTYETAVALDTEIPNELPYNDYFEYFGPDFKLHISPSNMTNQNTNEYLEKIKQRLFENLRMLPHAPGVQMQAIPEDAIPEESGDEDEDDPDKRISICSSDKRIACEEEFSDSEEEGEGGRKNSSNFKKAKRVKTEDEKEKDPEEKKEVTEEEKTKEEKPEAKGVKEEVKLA

Experiments:
[1] = biological target: human p53 (human (endogenous in KB, HEK293, HCT116)) (UniProt P04637); experiment: co-IP; endogenous proteins in NP-40 buffer lysates (20 mM Tris-HCl pH 7.4, 100 mM NaCl, 0.5 mM EDTA, 0.5% NP-40) of human cell lines (KB, HEK293, HCT116, H1299); 2 mg total protein with 1 µg antibody (anti-p53, anti-HDAC1 or anti-Sin3B), immunoblot of the partner; KB cells also after 1.0 µg/ml Adriamycin
[2] = biological target: HDAC1 (human (endogenous in KB, H1299)) (UniProt Q13547); experiment: as above

binding [1]: binds
binding [2]: binds
B1: human Sin3B (protein, UniProt O75182 1-1162)
chain: MAHAGGGSGGSGAGGPAGRGLSGARWGRSGSAGHEKLPVHVEDALTYLDQVKIRFGSDPATYNGFLEIMKEFKSQSIDTPGVIRRVSQLFHEHPDLIVGFNAFLPLGYRIDIPKNGKLNIQSPLTSQENSHNHGDGAEDFKQQVPYKEDKPQVPLESDSVEFNNAISYVNKIKTRFLDHPEIYRSFLEILHTYQKEQLNTRGRPFRGMSEEEVFTEVANLFRGQEDLLSEFGQFLPEAKRSLFTGNGPCEMHSVQKNEHDKTPEHSRKRSRPSLLRPVSAPAKKKMKLRGTKDLSIAAVGKYGTLQEFSFFDKVRRVLKSQEVYENFLRCIALFNQELVSGSELLQLVSPFLGKFPELFAQFKSFLGVKELSFAPPMSDRSGDGISREIDYASCKRIGSSYRALPKTYQQPKCSGRTAICKELDHWTLLQGSWTDDYCMSKFKNTCWIPGYSAGVLNDTWVSFPSWSEDSTFVSSKKTPYEEQLHRCEDERFELDVVLETNLATIRVLESVQKKLSRMAPEDQEKFRLDDSLGGTSEVIQRRAIYRIYGDKAPEIIESLKKNPVTAVPVVLKRLKAKEEEWREAQQGFNKIWREQYEKAYLKSLDHQAVNFKQNDTKALRSKSLLNEIESVYDEHQEQHSEGRSAPSSEPHLIFVYEDRQILEDAAALISYYVKRQPAIQKEDQGTIHQLLHQFVPSLFFSQQLDLGASEESADEDRDSPQGQTTDPSERKKPAPGPHSSPPEEKGAFGDAPATEQPPLPPPAPHKPLDDVYSLFFANNNWYFFLRLHQTLCSRLLKIYRQAQKQLLEYRTEKEREKLLCEGRREKGSDPAMELRLKQPSEVELEEYYPAFLDMVRSLLEGSIDPTQYEDTLREMFTIHAYVGFTMDKLVQNIARQLHHLVSDDVCLKVVELYLNEKKRGAAGGNLSSRCVRAARETSYQWKAERCMADENCFKVMFLQRKGQVIMTIELLDTEEAQTEDPVEVQHLARYVEQYVGTEGASSSPTEGFLLKPVFLQRNLKKFRRRWQSEQARALRGEARSSWKRLVGVESACDVDCRFKLSTHKMVFIVNSEDYMYRRGTLCRAKQVQPLVLLRHHQHFEEWHSRWLEDNVTVEAASLVQDWLMGEEDEDMVPCKTLCETVHVHGLPVTRYRVQYSRRPASP
